Assay results from PubChem BioAssay AID894 (National Center for Advancing Translational Sciences (NCATS), 2007).
Several values for one entry are separate records, joined by “and”; a condition that tells them apart may be missing. Identical values can stand only once. The campaign covered roughly 150,000 compounds. About 6,500 (4.3%) were called active. The shares of active, inactive and inconclusive entries below differ from those in the screen. Calls follow the shape of the dose curve; as a rule, active = well fitted inhibition curve with a large enough effect (not every such curve was filed as active); inconclusive = small, poorly fitted or top-dose-only effect, or another doubt; inactive = no such curve, though single readings can be large or run the other way. Potencies of inconclusive entries are left out as doubtful fits.

What follows are compounds tested against 15-hydroxyprostaglandin dehydrogenase [NAD(+)] (Homo sapiens) (UniProt P15428) (assay: qHTS Assay for Inhibitors of HPGD (15-Hydroxyprostaglandin Dehydrogenase)). Conditions: purified HPGD, NADH fluorescence kinetic, PGE2 substrate; activity change, negative = inhibition: stronger effect = lower value.
Excerpt: Human 15-Hydroxyprostaglandin dehydrogenase (HPGD) catalyzes the inactivation of prostaglandin E2, and plays a major role in cancer biology by antagonizing the oncogenic potential of cyclooxygenase type 2 (COX2). Assays are available, based on absorbance/fluorescence increase of NADH with the substrate 15-OH prostaglandin E2. References 1. Myung SJ, Rerko RM, Yan M, Platzer P, Guda K, Dotson A, Lawrence E, Dannenberg AJ, Lovgren AK, Luo G, Pretlow TP, Newman RA, Willis J, Dawson D, Markowitz SD. 15-Hydroxyprostaglandin dehydrogenase is an in vivo suppressor of colon tumorigenesis. […] 2. Yan M, Rerko RM, Platzer P, Dawson D, Willis J, Tong M, Lawrence E, Lutterbaugh J, Lu S, Willson JK, Luo G, Hensold J, Tai HH, Wilson K, Markowitz SD. 15-Hydroxyprostaglandin dehydrogenase, a COX-2 oncogene antagonist, is a TGF-beta-induced suppressor of human gastrointestinal cancers. Proc Natl Acad Sci U S A. 2004 Dec 14;101(50):17468-73. 3. Yang L, Amann JM, Kikuchi T, Porta R, Guix M, Gonzalez A, Park KH, Billheimer D, Arteaga CL, Tai HH, Dubois R, Carbone DP, Johnson DH. Inhibition of Epidermal Growth Factor Receptor Signaling Elevates 15-Hydroxyprostaglandin Dehydrogenase in Non-Small-Cell Lung Cancer. Cancer Res. 2007 Jun 15;67(12):5587-5593. Inhibition of HPGD activity was screened by utilizing prostaglandin as an electron donor and NAD+ as an electron acceptor/cofactor. An increase in the fluorescence intensity due to conversion of NAD+ to NADH was used to measure the enzyme activity. NIH Chemical Genomics Center [NCGC] Structural Genomics Consortium [SGC]
Buffer: 50 mM Tris-HCl, 0.01% Tween 20, pH 8. Enzyme Buffer: 50 mM Tris-HCl, 0.5 mM NAD+ and 0.01% Tween 20, pH 8. Reagents/Controls: Buffer in columns 3 and 4 as negative control (no enzyme). Substrate/cofactor solution: 1 mM NAD+ and 30 uM prostaglandin (Sigma, prostaglandin E2, # P5640) final concentrations dispensed throughout the plate. Enzyme: 20 nM HPGD final concentration in columns 1, 2, 5-48. Column 1 and 2 is neutral (100% activity). A titration of control inhibitor GW5074 (G6416 Sigma-Aldrich, St. Louis, MO) top concentration 10 mM in DMSO, then 1:2 dilution for a total of 16 concentrations in duplicate) was pin-transferred into column 2. Assay Steps: Three uL of enzyme were dispensed to 1536-well Greiner black solid bottom plates. Compounds and control inhibitor (23 nL) were transferred via Kalypsys PinTool. The plates were incubated for 15 min at room temperature, and then 1 uL of substrate/cofactor solution was added to start the reaction. The plates were immediately transferred to and read 5 times every 30 seconds on ViewLux High-throughput CCD imager (Perkin-Elmer) using 360 nm excitation and 450 nm emission fluorescence protocol. The fluorescence intensity difference between the last and the first time points was used to compute reaction progress.
% is scaled to controls: 0 for no effect and ±100 for the full control effect; potency is read from the fitted curve at half-maximal effect; tags tell the direction and shape of the fitted curve.

Sequence of UniProt P15428 (P15428 whole entry, looked up): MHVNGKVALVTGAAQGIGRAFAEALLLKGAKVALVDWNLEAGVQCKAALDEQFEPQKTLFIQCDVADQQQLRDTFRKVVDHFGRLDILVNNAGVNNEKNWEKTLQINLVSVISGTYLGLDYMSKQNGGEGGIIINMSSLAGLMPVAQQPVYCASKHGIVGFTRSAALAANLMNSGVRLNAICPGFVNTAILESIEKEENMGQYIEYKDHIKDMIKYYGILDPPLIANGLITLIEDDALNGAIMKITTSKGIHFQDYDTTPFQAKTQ

Row | SMILES | Potency | activity change, negative = inhibition
1 | Cc1cc2oc(=O)cc(CN3CCN(Cc4ccccc4)CC3)c2cc1Cl | inconclusive [inhibitor, partial curve] | 
2 | N#CC1=C(S)N(c2ccccc2)C(c2cccs2)NC1=O (stereo not given) | active: 31.6 µM | 
3 | CC(C)CC(C(=O)O)N1C(=O)C2C3CC(C2C1=O)C1C(c2ccccc2)c2sc(=O)[nH]c2SC31 (stereo not given) | inconclusive [inhibitor, single point] | 
4 | COc1cc(C2Nc3ccc4ncccc4c3C3=C2C(=O)CC(C)(C)C3)cc(OC)c1O (stereo not given) |  | inactive: -13.1%
5 | CC(C)(C)c1ccc(C(O)CCCN2CCC(C(O)(c3ccccc3)c3ccccc3)CC2)cc1 (stereo not given) |  | inactive: -21.2% and inactive: -0.798%
6 | O=C(CC1CCCC1)Nc1ccc2c(c1)CCC2 | active: 14.1 µM | 
7 | CCOC(=O)N1CCN(c2nc(-c3cccc(OC)c3)cc(C(F)(F)F)n2)CC1 | inconclusive [inhibitor, single point] | 
8 | Cc1nc2ccc(Cl)cc2c(-c2ccccc2F)c1CC(=O)O |  | inactive: -15.2%
9 | Cc1cc(C)n(CC(=O)N/N=C/c2cccs2)n1 | inconclusive [inhibitor, partial curve] | 
10 | Cc1ccc(N(C(C)C(=O)N2CCCCC2)S(C)(=O)=O)cc1C (stereo not given) |  | inactive: -8.87%
11 | O=C(c1ccc(Oc2ccc(C(F)(F)F)cc2[N+](=O)[O-])cc1)N1CCOCC1 | inconclusive [inhibitor, partial curve, poor fit] | 
12 | CN1CC2(Cc3c1ccc1ccccc31)C(=O)OC(C)(C)OC2=O | inconclusive [inhibitor, partial curve] | 
13 | Cc1ccc(-n2ncc3c(NCc4ccc5c(c4)OCO5)ncnc32)c(C)c1 |  | inactive: -13.7%
14 | Cc1ccc(CNC(=O)CCCc2nc3ccccc3s2)cc1 | inconclusive [inhibitor, single point] | 
15 | C/C(=N\NC(=O)CC#N)c1cc2ccccc2oc1=O | inconclusive [inhibitor, partial curve] | 
16 | O=C(OCc1cc(=O)n2c(n1)sc1ccccc12)c1cccc(O)c1 | inconclusive [inhibitor, partial curve] | 
17 | O=C(COC(=O)CSc1cccc2cccc(Cl)c12)Nc1ncc(C(F)(F)F)cc1Cl | inconclusive [inhibitor, partial curve] | 
18 | O=C1C2C3C=CC(CO)(O3)C2C(=O)N1c1ccc(-c2ccccc2)cc1 (stereo not given) | active: 1.41 µM | 
19 | CCOC(=O)CN1C(=O)S/C(=C/c2ccc(N3CCCCC3)o2)C1=O |  | inactive: -7.68%
20 | COCCN(CCOC)c1nc(C)nc2c1nc(-c1ccccc1)n2CCN1CCOCC1 | inconclusive [inhibitor, partial curve] | 
21 | CNc1nc(SCc2ccccc2Cl)nc2c1CCCC2 |  | inactive: -6.94%
22 | Cc1ccc(-n2cnc3cc(NCc4cccs4)ccc32)cc1 | inconclusive [inhibitor, partial curve] | 
23 | Cc1noc(C)c1C(=O)Nc1sc(C)c(-c2ccccc2)c1C#N |  | inactive: -28.7%
24 | COc1cc(-c2nnc(SCC(=O)N3CCCC3)o2)cc(OC)c1OC | inconclusive [inhibitor, partial curve] | 
25 | COc1nc2c(C)cccc2cc1-c1noc(-c2ccco2)n1 | inconclusive [inhibitor, partial curve] | 

Row | SMILES | Potency | activity change, negative = inhibition
26 | O=C(N/N=C/c1cnc2ccccc2n1)c1cccc(F)c1 |  | inactive: -16.9%
27 | Cc1cc(C)n2c(SC/C(O)=C(\C#N)c3nc4ccccc4[nH]3)nnc2n1 | inconclusive [inhibitor, partial curve] | 
28 | O=c1cc(C(F)F)oc2c1ccc1ccccc12 | inconclusive [inhibitor, full curve] | 
29 | CC1(C)CC(=O)C=C(Nc2ccccn2)C1 |  | inactive: -23.4%
30 | CCOC(=O)c1sc(NC(=O)CSc2nc(C)cc(-c3ccccc3)n2)c(C#N)c1C | active: 7.08 µM | 
31 | CCOc1ccccc1NC(=O)COC(=O)CN(C)S(=O)(=O)c1ccc(C)cc1 |  | inactive: -17.3%
32 | Fc1cccc(NCc2cn3ccccc3n2)c1 | inconclusive [inhibitor, single point] | 
33 | Cn1nc(-c2ccc(Cl)cc2)c2cc(C(=O)NCCCN3CCCC3)sc21 | inconclusive [inhibitor, partial curve] | 
34 | O=C(CN1C(=O)CCC1=O)Nc1nc(-c2nc3ccccc3s2)cs1 | inconclusive [inhibitor, partial curve] | 
35 | CC(=O)c1sc(NC(=O)C(C)(C)C)nc1C |  | inactive: 2.25%
36 | Cc1ccc(C)c(NC(=O)NCc2ccc(Cl)cc2)c1 |  | inactive: 2.17%
37 | CC1=C(C(=O)Nc2ccccc2)C(c2ccco2)C(C#N)=C(SCC(N)=O)N1 (stereo not given) | inconclusive [inhibitor, partial curve] | 
38 | Cc1cc(C)n(CC(=O)N2c3ccccc3Sc3ccc(C(F)(F)F)cc32)n1 |  | inactive: -18.7%
39 | Cn1c(=O)[nH]c(=O)c2c1nc(Br)n2CCCCSc1nc2ccccc2o1 | active: 25.1 µM | 
40 | CC1(C)CC2CC(C)(CN2C(=O)COC(=O)c2ccc(Cl)cc2N)C1 (stereo not given) | inconclusive [inhibitor, partial curve] | 
41 | CCCCn1c(NC(=O)c2ccccc2Cl)c(C#N)c2nc3ccccc3nc21 | inconclusive [inhibitor, partial curve] | 
42 | O=C(NCC1CCCO1)C1CCN(S(=O)(=O)N2CCCC2)CC1 (stereo not given) | inconclusive [inhibitor, single point] | 
43 | CCN(CC)S(=O)(=O)c1ccc(C(=O)NCc2ccc(C)cc2)cc1 |  | inactive: 0.23%
44 | CC(C)Cc1nc2oc3c(NCc4cccnc4)ncnc3c2c2c1CCC2 | inconclusive [inhibitor, partial curve] | 
45 | Cc1c(C(=O)NCc2ccoc2)oc2ccc3c(c12)C(=O)CC(C)(C)O3 | inconclusive [inhibitor, partial curve] | 
46 | COc1ccc(C(C)=O)cc1CSc1nnc(Nc2ccc(C)cc2)s1 | inconclusive [inhibitor, partial curve] | 
47 | COc1cc(OC)c(NC(=O)c2c(-c3ccccc3)noc2C)cc1Cl | inconclusive [inhibitor, single point] | 
48 | COc1ccc(OC)c(NC(=O)COC(=O)Cc2ccc(-c3ccccc3)cc2)c1 |  | inactive: -8.35%
49 | CCOCCCNCC(O)c1ccccc1 (stereo not given) |  | inactive: 5.35%
50 | CCN1CCN(C(=S)c2ccc(SC)cc2)CC1 | inconclusive [inhibitor, partial curve] | 

Row | SMILES | Potency | activity change, negative = inhibition
51 | CC(=O)N(CN1C(=O)c2ccccc2C1=O)c1ccccc1 |  | inactive: -10.6%
52 | O=C(Nc1ccc(Cl)cc1)Nc1nnc(CSCc2ccccc2Cl)s1 |  | inactive: -8.09%
53 | O=C(Nc1nc2c(s1)CCCC2)c1ccc(Br)o1 |  | inactive: -20.6%
54 | C=CCn1c(CNC(=O)c2cccs2)nnc1SCC(=O)c1ccc(Br)cc1 | inconclusive [inhibitor, partial curve, poor fit] | 
55 | c1coc(-c2nnc3sc(Cc4cccs4)nn23)c1 | inconclusive [inhibitor, partial curve] | 
56 | Cc1cc(C)c(C#N)c(N2CCOCC2)n1 | inconclusive [inhibitor, partial curve] | 
57 | COCc1nc(-c2ccc(-c3ccc(C)cc3)nc2OC)no1 | inconclusive [inhibitor, single point] | 
58 | COc1ccc(CNC(=O)C2CC(=O)N(c3ccc(OCC(=O)N4CCCCC4)cc3)C2)cc1 (stereo not given) | active: 14.1 µM | 
59 | COc1cccc(C(=O)Nc2ccc(N(C)C)cc2)c1OC |  | inactive: -8.13%
60 | Cc1cc2c(n1-c1ccc(Br)cc1)CC(C)(C)CC2=O |  | inactive: -2.46%
61 | CCOC(=O)Cn1nnnc1C(C(C)C)N(Cc1cccs1)Cc1cc2cc(C)ccc2[nH]c1=O (stereo not given) | inconclusive [inhibitor, partial curve] | 
62 | Clc1ccccc1-c1nnc2sc(CCc3ccccc3)nn12 | active: 8.91 µM | 
63 | Oc1cc2c(cc1O)[C@@H]1c3ccc(O)c(O)c3OC[C@]1(O)C2 | active: 11.2 µM | 
64 | O=C(CN1CCN(Cc2ccc(Cl)cc2)C1=O)NCCN1CCCC1 |  | inactive: 2.56%
65 | N#Cc1ccc(CSc2nc(-c3cccs3)c3c(c2C(=O)O)CCCC3)cc1 | active: 17.8 µM | 
66 | O=C(c1ccccc1)c1ccc(OCCCN2CCCC2)cc1 |  | inactive: -7.66%
67 | Cc1ccc(Cn2nnc3c(=O)n(Cc4ccccc4C)cnc32)cc1 |  | inactive: -6.76%
68 | Cc1[nH]c(=S)sc1Cc1ccc(F)cc1 | active: 15.8 µM | 
69 | Cc1ccc2cc(CCNC(=O)CC(C)C)c(=O)[nH]c2c1 | inconclusive [inhibitor, partial curve] | 
70 | CCCn1c(C(=O)OC)cc2c1ccn2-c1ccc(F)cc1 | inconclusive [inhibitor, partial curve] | 
71 | COc1ccc(/C=C/c2nc(-c3ccccc3O)n[nH]2)cc1 | inconclusive [inhibitor, partial curve] | 
72 | CC(C)NC(=O)CCCc1cn(C)c2ccccc12 | inconclusive [inhibitor, partial curve] | 
73 | CCn1nc(CC(=O)Nc2nnc(CC(=O)N3CCCCC3)s2)c2ccccc2c1=O | active: 22.4 µM | 
74 | S=c1[nH]nc2c3c4c(sc3ncn12)CCCC4 | active: 20 µM | 
75 | CCN(CC)c1ccc(-c2nn3c(-c4cccnc4)nnc3s2)cc1 | inconclusive [inhibitor, partial curve] | 
